According to the supplement of paper PMC8728848:
The other results are listed elsewhere or left out.

Key:
Assay in all cases: glycan array binding signal (z-score within array); higher = stronger binding
Conditions in all cases: glycan notation: IUPAC condensed, linker removed
Glc(b1-3)Glc = target: Glc(b1-3)Glc
Summary of the method: (§1)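 Glycan array data came from 3228 arrays in the Consortium for Functional Glycomics database, and only arrays with an available protein sequence were kept. Glycan names were put into IUPAC-condensed notation, and columns mapping to the same glycan were averaged. The binding signal is a within-array Z-score, averaged across arrays of one protein sequence run at different concentrations or buffers and across linkers. A negative Z-score can be read as non-binding.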

Glc(b1-3)Glc(b1-3)Glc = target: Glc(b1-3)Glc(b1-3)Glc
Summary of the method: as §1

[1] = target: Glc(b1-3)Glc(b1-3)Glc(b1-3)Glc
Summary of the method: as §1

[2] = target: Glc(b1-3)Glc(b1-3)Glc(b1-3)Glc(b1-3)Glc
Summary of the method: as §1

[3] = target: Glc(b1-3)Glc(b1-3)Glc(b1-3)Glc(b1-3)Glc(b1-3)Glc
Summary of the method: as §1

[4] = target: Glc(b1-3)Glc(b1-3)Glc(b1-3)Glc(b1-3)Glc(b1-3)Glc(b1-3)Glc
Summary of the method: as §1

[5] = target: Glc(b1-3)Glc(b1-3)Glc(b1-3)Glc(b1-3)Glc(b1-3)Glc(b1-3)Glc(b1-3)Glc
Summary of the method: as §1

[6] = target: Glc(b1-3)Glc(b1-3)Glc(b1-3)Glc(b1-3)Glc(b1-3)Glc(b1-3)Glc(b1-3)Glc(b1-3)Glc
Summary of the method: as §1

[7] = target: Glc(b1-3)Glc(b1-3)Glc(b1-3)Glc(b1-3)Glc(b1-3)Glc(b1-3)Glc(b1-3)Glc(b1-3)Glc(b1-3)Glc
Summary of the method: as §1

[8] = target: Glc(b1-3)Glc(b1-3)Glc(b1-3)Glc(b1-3)Glc(b1-3)Glc(b1-3)Glc(b1-3)Glc(b1-3)Glc(b1-3)Glc(b1-3)Glc
Summary of the method: as §1

[9] = target: Glc(b1-3)Glc(b1-3)Glc(b1-3)Glc(b1-3)Glc(b1-3)Glc(b1-3)Glc(b1-3)Glc(b1-3)Glc(b1-3)Glc(b1-3)Glc(b1-3)Glc
Summary of the method: as §1

[10] = target: Glc(b1-3)Glc(b1-3)Glc(b1-3)Glc(b1-3)Glc(b1-3)Glc(b1-3)Glc(b1-3)Glc(b1-3)Glc(b1-3)Glc(b1-3)Glc(b1-3)Glc(b1-3)Glc
Summary of the method: as §1

[11] = target: Glc(b1-3)Glc(b1-3)Glc(b1-3)Glc(b1-3)Glc(b1-3)Glc(b1-3)Glc(b1-3)[Glc(b1-6)]Glc(b1-3)Glc
Summary of the method: as §1

[12] = target: Glc(b1-3)Glc(b1-3)Glc(b1-3)Glc(b1-3)Glc(b1-3)Glc(b1-3)[Glc(b1-6)]Glc(b1-3)Glc(b1-3)Glc
Summary of the method: as §1

[13] = target: Glc(b1-3)Glc(b1-3)Glc(b1-3)Glc(b1-3)[Glc(b1-6)]Glc(b1-3)Glc(b1-3)Glc(b1-3)Glc(b1-3)Glc
Summary of the method: as §1

[14] = target: Glc(b1-3)Glc(b1-3)Glc(b1-3)[Glc(b1-6)]Glc(b1-3)Glc(b1-3)Glc(b1-3)Glc(b1-3)[Glc(b1-6)]Glc(b1-3)Glc
Summary of the method: as §1

[15] = target: Glc(b1-3)Glc(b1-3)[Glc(b1-6)]Glc(b1-3)Glc(b1-3)Glc(b1-3)Glc(b1-3)Glc(b1-3)Glc(b1-3)Glc
Summary of the method: as §1

Glc(b1-3)Glc(b1-4)Glc = target: Glc(b1-3)Glc(b1-4)Glc
Summary of the method: as §1

[16] = target: Glc(b1-3)Glc(b1-4)Glc(b1-4)Glc
Summary of the method: as §1

[17] = target: Glc(b1-3)Glc(b1-4)Glc(b1-6)Glc(b1-4)Glc
Summary of the method: as §1

[18] = target: Glc(b1-3)[Glc(b1-6)]Glc(a1-3)Glc(b1-3)[Glc(b1-6)]Glc
Summary of the method: as §1

[19] = target: Glc(b1-3)[Glc(b1-6)]Glc(b1-3)Glc(b1-3)Glc(b1-3)Glc(b1-3)Glc(b1-3)Glc(b1-3)Glc
Summary of the method: as §1

Glc(b1-4)Glc = target: Glc(b1-4)Glc
Summary of the method: as §1

Glc(b1-4)Glc(b1-3)Glc = target: Glc(b1-4)Glc(b1-3)Glc
Summary of the method: as §1

[20] = target: Glc(b1-4)Glc(b1-3)Glc(b1-4)Glc
Summary of the method: as §1

Glc(b1-4)Glc(b1-4)Glc = target: Glc(b1-4)Glc(b1-4)Glc
Summary of the method: as §1

[21] = target: Glc(b1-4)Glc(b1-4)Glc(b1-3)Glc
Summary of the method: as §1

[22] = target: Glc(b1-4)Glc(b1-4)Glc(b1-3)Glc(b1-4)Glc(b1-4)Glc(b1-3)Glc
Summary of the method: as §1

[23] = target: Glc(b1-4)Glc(b1-4)Glc(b1-4)Glc
Summary of the method: as §1

[24] = target: Glc(b1-4)Glc(b1-4)Glc(b1-4)Glc(b1-3)Glc
Summary of the method: as §1

[25] = target: Glc(b1-4)Glc(b1-4)Glc(b1-4)Glc(b1-4)Glc
Summary of the method: as §1

[26] = target: Glc(b1-4)Glc(b1-4)Glc(b1-4)Glc(b1-4)Glc(b1-4)Glc
Summary of the method: as §1

[27] = target: Glc(b1-4)Glc(b1-4)Glc(b1-4)Glc(b1-4)Glc(b1-4)Glc(b1-4)Glc
Summary of the method: as §1

[28] = target: Glc(b1-4)Glc(b1-4)Glc(b1-4)Glc(b1-4)Glc(b1-4)Glc(b1-4)Glc(b1-4)Glc
Summary of the method: as §1

[29] = target: Glc(b1-4)Glc(b1-4)Glc(b1-4)Glc(b1-4)Glc(b1-4)Glc(b1-4)Glc(b1-4)Glc(b1-4)Glc
Summary of the method: as §1

[30] = target: Glc(b1-4)Glc(b1-4)Glc(b1-4)Glc(b1-4)Glc(b1-4)Glc(b1-4)Glc(b1-4)Glc(b1-4)Glc(b1-4)Glc
Summary of the method: as §1

[31] = target: Glc(b1-4)Glc(b1-4)Glc(b1-4)Glc(b1-4)Glc(b1-4)Glc(b1-4)Glc(b1-4)Glc(b1-4)Glc(b1-4)Glc(b1-4)Glc
Summary of the method: as §1

[32] = target: Glc(b1-4)Glc(b1-4)Glc(b1-4)Glc(b1-4)Glc(b1-4)Glc(b1-4)Glc(b1-4)Glc(b1-4)Glc(b1-4)Glc(b1-4)Glc(b1-4)Glc
Summary of the method: as §1

[33] = target: Glc(b1-4)Glc(b1-4)Glc(b1-4)Glc(b1-4)Glc(b1-4)Glc(b1-4)Glc(b1-4)Glc(b1-4)Glc(b1-4)Glc(b1-4)Glc(b1-4)Glc(b1-4)Glc
Summary of the method: as §1

Glc(b1-6)Glc = target: Glc(b1-6)Glc
Summary of the method: as §1

Glc(b1-6)Glc(b1-6)Glc = target: Glc(b1-6)Glc(b1-6)Glc
Summary of the method: as §1

[34] = target: Glc(b1-6)Glc(b1-6)Glc(b1-6)Glc
Summary of the method: as §1

[35] = target: Glc(b1-6)Glc(b1-6)Glc(b1-6)Glc(b1-6)Glc
Summary of the method: as §1

[36] = target: Glc(b1-6)Glc(b1-6)Glc(b1-6)Glc(b1-6)Glc(b1-6)Glc
Summary of the method: as §1

[37] = target: Glc(b1-6)Glc(b1-6)Glc(b1-6)Glc(b1-6)Glc(b1-6)Glc(b1-6)Glc
Summary of the method: as §1

[38] = target: Glc(b1-6)Glc(b1-6)Glc(b1-6)Glc(b1-6)Glc(b1-6)Glc(b1-6)Glc(b1-6)Glc
Summary of the method: as §1

[39] = target: Glc(b1-6)Glc(b1-6)Glc(b1-6)Glc(b1-6)Glc(b1-6)Glc(b1-6)Glc(b1-6)Glc(b1-6)Glc
Summary of the method: as §1

[40] = target: Glc(b1-6)Glc(b1-6)Glc(b1-6)Glc(b1-6)Glc(b1-6)Glc(b1-6)Glc(b1-6)Glc(b1-6)Glc(b1-6)Glc
Summary of the method: as §1

[41] = target: Glc(b1-6)Glc(b1-6)Glc(b1-6)Glc(b1-6)Glc(b1-6)Glc(b1-6)Glc(b1-6)Glc(b1-6)Glc(b1-6)Glc(b1-6)Glc
Summary of the method: as §1

[42] = target: Glc(b1-6)Glc(b1-6)Glc(b1-6)Glc(b1-6)Glc(b1-6)Glc(b1-6)Glc(b1-6)Glc(b1-6)Glc(b1-6)Glc(b1-6)Glc(b1-6)Glc
Summary of the method: as §1

[43] = target: Glc(b1-6)Glc(b1-6)Glc(b1-6)Glc(b1-6)Glc(b1-6)Glc(b1-6)Glc(b1-6)Glc(b1-6)Glc(b1-6)Glc(b1-6)Glc(b1-6)Glc(b1-6)Glc
Summary of the method: as §1

[44] = target: Man(b1-4)Man(b1-4)Man(b1-4)Man
Summary of the method: as §1

[45] = target: Man(b1-4)Man(b1-4)Man(b1-4)Man(b1-4)Man
Summary of the method: as §1

[46] = target: Man(b1-4)Man(b1-4)Man(b1-4)Man(b1-4)Man(b1-4)Man
Summary of the method: as §1

[47] = target: Xyl(b1-4)Xyl(b1-4)Xyl(b1-4)Xyl(b1-4)Xyl
Summary of the method: as §1

[48] = target: Xyl(b1-4)Xyl(b1-4)Xyl(b1-4)Xyl(b1-4)Xyl(b1-4)Xyl
Summary of the method: as §1

B1: Cel5A (Clostridium thermocellum), P16218 (protein)
chain: AVGEKMLDDFEGVLNWGSYSGEGAKVSTKIVSGKTGNGMEVSYTGTTDGYWGTVYSLPDGDWSKWLKISFDIKSVDGSANEIRFMIAEKSINGVGDGEHWVYSITPDSSWKTIEIPFSSFRRRLDYQPPGQDMSGTLDLDNIDSIHFMYANNKSGKFVVDNIKLIGATSDPTPSIKHGDLNFDNAVNSTDLLMLKRYILKSLELGTSEQEEKFKKAADLNRDNKVDSTDLTILKRYLLKAISEIPI
- glycan array binding signal (z-score) (Glc(b1-3)Glc): -0.106
- glycan array binding signal (z-score) (Glc(b1-3)Glc(b1-3)Glc): -0.143
- glycan array binding signal (z-score) [1]: -0.143
- glycan array binding signal (z-score) [2]: -0.143
- glycan array binding signal (z-score) [3]: -0.143
- glycan array binding signal (z-score) [4]: -0.143
- glycan array binding signal (z-score) [5]: -0.143
- glycan array binding signal (z-score) [6]: 0.004
- glycan array binding signal (z-score) [7]: -0.143
- glycan array binding signal (z-score) [8]: -0.143
- glycan array binding signal (z-score) [9]: -0.143
- glycan array binding signal (z-score) [10]: -0.143
- glycan array binding signal (z-score) [11]: 0.035
- glycan array binding signal (z-score) [12]: 0.047
- glycan array binding signal (z-score) [13]: -0.143
- glycan array binding signal (z-score) [14]: -0.114
- glycan array binding signal (z-score) [15]: -0.024
- glycan array binding signal (z-score) (Glc(b1-3)Glc(b1-4)Glc): -0.059
- glycan array binding signal (z-score) [16]: -0.136
- glycan array binding signal (z-score) [17]: -0.102
- glycan array binding signal (z-score) [18]: -0.143
- glycan array binding signal (z-score) [19]: 0.014
- glycan array binding signal (z-score) (Glc(b1-4)Glc): -0.113
- glycan array binding signal (z-score) (Glc(b1-4)Glc(b1-3)Glc): -0.143
- glycan array binding signal (z-score) [20]: -0.143
- glycan array binding signal (z-score) (Glc(b1-4)Glc(b1-4)Glc): -0.117
- glycan array binding signal (z-score) [21]: -0.143
- glycan array binding signal (z-score) [22]: 4.62
- glycan array binding signal (z-score) [23]: -0.143
- glycan array binding signal (z-score) [24]: -0.143
- glycan array binding signal (z-score) [25]: -0.139
- glycan array binding signal (z-score) [26]: -0.143
- glycan array binding signal (z-score) [27]: -0.103
- glycan array binding signal (z-score) [28]: -0.143
- glycan array binding signal (z-score) [29]: -0.137
- glycan array binding signal (z-score) [30]: -0.143
- glycan array binding signal (z-score) [31]: -0.124
- glycan array binding signal (z-score) [32]: -0.094
- glycan array binding signal (z-score) [33]: -0.097
- glycan array binding signal (z-score) (Glc(b1-6)Glc): -0.143
- glycan array binding signal (z-score) (Glc(b1-6)Glc(b1-6)Glc): -0.143
- glycan array binding signal (z-score) [34]: -0.143
- glycan array binding signal (z-score) [35]: -0.143
- glycan array binding signal (z-score) [36]: -0.139
- glycan array binding signal (z-score) [37]: -0.143
- glycan array binding signal (z-score) [38]: -0.143
- glycan array binding signal (z-score) [39]: -0.143
- glycan array binding signal (z-score) [40]: -0.107
- glycan array binding signal (z-score) [41]: -0.143
- glycan array binding signal (z-score) [42]: -0.113
- glycan array binding signal (z-score) [43]: -0.143
- glycan array binding signal (z-score) [44]: -0.097
- glycan array binding signal (z-score) [45]: 0.04
- glycan array binding signal (z-score) [46]: -0.142
- glycan array binding signal (z-score) [47]: -0.143
- glycan array binding signal (z-score) [48]: -0.143
